What was measured:
monomeric human 4-1BB = target: T1, monomeric human 4-1BB (human, UniProt Q07011 24-186, limits assumed); assay: SPR, monomeric human 4-1BB
T1 construct: SPR analyte/ligand

human CLDN6 on cells [1] = target: T2, human CLDN6 on cells (human, UniProt P56747 1-220); assay: flow cytometry (GMFI) on OVCAR3 cells
T2 construct: CHO-K1 cells stably expressing human CLDN6, and OVCAR3 / OV90 cells with endogenous CLDN6; also called CHO-K1-CLDN6; CLDN6 on OVCAR3 and OV90 cells
T2 sequence: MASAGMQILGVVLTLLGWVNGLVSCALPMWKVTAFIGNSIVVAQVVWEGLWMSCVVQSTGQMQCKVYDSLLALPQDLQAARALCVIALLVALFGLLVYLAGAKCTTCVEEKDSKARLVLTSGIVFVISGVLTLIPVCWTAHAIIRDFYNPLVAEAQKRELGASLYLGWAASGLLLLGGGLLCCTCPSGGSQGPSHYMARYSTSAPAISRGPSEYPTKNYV

[2] = target: T3, soluble recombinant human 4-1BB (human, UniProt Q07011 24-186); assay: ELISA, soluble recombinant human 4-1BB
T3 construct: ELISA antigen

[3] = target: T4, human CLDN6 on virus-like particles (human, UniProt P56747 1-220)
T4 construct: also called CLDN6 virus-like particles (VLP); CLDN6 VLP
T4 sequence: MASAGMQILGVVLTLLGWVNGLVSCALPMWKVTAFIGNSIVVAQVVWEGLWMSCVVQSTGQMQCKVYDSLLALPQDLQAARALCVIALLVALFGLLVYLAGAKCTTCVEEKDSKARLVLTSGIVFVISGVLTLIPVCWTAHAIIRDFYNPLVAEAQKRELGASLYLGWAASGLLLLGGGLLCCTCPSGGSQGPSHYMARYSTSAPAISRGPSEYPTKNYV

human CLDN6 on cells [4] = target: T2, human CLDN6 on cells; assay: flow cytometry (GMFI) on OV90 cells
4-1BB on cells = target: T5, 4-1BB on cells (human, UniProt Q07011 24-255); assay: flow cytometry on HEK293 cells expressing 4-1BB
T5 construct: Species is stated as human for section 2.2 as a whole, not for each cell line; also called HEK293 cells expressing 4-1BB; 4-1BB overexpressed HEK293 cell

human CLDN6 on cells [5] = target: T2, human CLDN6 on cells; assay: flow cytometry (GMFI) on CHO-K1-CLDN6 cells

Sequence of 4-1BB on cells (Q07011 24-255): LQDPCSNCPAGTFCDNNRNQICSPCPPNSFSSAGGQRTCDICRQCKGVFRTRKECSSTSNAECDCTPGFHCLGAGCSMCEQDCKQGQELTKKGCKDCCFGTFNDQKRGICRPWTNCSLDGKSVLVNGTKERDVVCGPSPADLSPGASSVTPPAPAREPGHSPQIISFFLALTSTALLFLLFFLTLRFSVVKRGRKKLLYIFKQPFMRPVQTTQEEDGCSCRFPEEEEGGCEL
Sequence of monomeric human 4-1BB (Q07011 24-186 limits assumed): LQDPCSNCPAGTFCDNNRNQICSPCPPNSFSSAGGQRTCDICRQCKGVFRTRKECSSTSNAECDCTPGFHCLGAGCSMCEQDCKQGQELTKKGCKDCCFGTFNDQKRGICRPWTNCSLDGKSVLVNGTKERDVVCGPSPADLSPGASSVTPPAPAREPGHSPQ
Sequence of soluble recombinant human 4-1BB (Q07011 24-186 limits assumed): as above

B1: CLDN6-1 IgG1 WT X 4-1BB (bispecific antibody)
heavy: QVQLQESGPGLVKPSETLSLTCTVSGYSITSGYYWNWIRQPPGKGLEWMGYISYSGSNNYNPSLKNRVTISRDTSKNQFSLKLSSVTAADTAVYYCARGGYYFDYWGQGTLVTVSS[… human IgG1 constant region …]GGGGSGGGGSGGGGSQVQLQESGGGLVQPGGSLRLSCAASGYTYSSNCMGWFRQAPGKGLEGVAVICTGGGSPSYADSVKGRFTISRDNAKNTLYLQMNSLRAEDTAVYYCAADLLRAGTPLSSYEFNYWGQGTLVTVSS
light: DIVMTQSPDSLAVSLGERATINCKSSQSLLNTNNQKNYLAWYQQKPGQPPKLLIYFASTRESGVPDRFSGSGSGTDFTLTISSLQAEDVAVYFCQQHYNAPRTFGGGTKVEIKRTVAAPSVFIFPPSDEQLKSGTASVVCLLNNFYPREAKVQWKVDNALQSGNSQESVTEQDSKDSTYSLSSTLTLSKADYEKHKVYACEVTHQGLSSPVTKSFNRGEC
notes: also called CLDN6-1 X 4-1BB WT; CLDN6-1×4-1BB WT
Binder B1 has a Kd (monomeric human 4-1BB) of 15.7 nM, an EC50 (human CLDN6 on cells [1]) of 6.28 nM and an EC50 [2] of 0.078 nM. For the same binder, the Kd [3] was 2.36 nM, the EC50 (human CLDN6 on cells [4]) was 2.27 nM and the EC50 (4-1BB on cells) was 0.347 nM. The EC50 (human CLDN6 on cells [5]) was 1.13 nM.

B2: CLDN6-1 IgG1 N297A X 4-1BB (bispecific antibody)
heavy: QVQLQESGPGLVKPSETLSLTCTVSGYSITSGYYWNWIRQPPGKGLEWMGYISYSGSNNYNPSLKNRVTISRDTSKNQFSLKLSSVTAADTAVYYCARGGYYFDYWGQGTLVTVSSASTKGPSVFPLAPSSKSTSGGTAALGCLVKDYFPEPVTVSWNSGALTSGVHTFPAVLQSSGLYSLSSVVTVPSSSLGTQTYICNVNHKPSNTKVDKKV[… human IgG1 Fc with changes …]GGGGSGGGGSGGGGSQVQLQESGGGLVQPGGSLRLSCAASGYTYSSNCMGWFRQAPGKGLEGVAVICTGGGSPSYADSVKGRFTISRDNAKNTLYLQMNSLRAEDTAVYYCAADLLRAGTPLSSYEFNYWGQGTLVTVSS
light: DIVMTQSPDSLAVSLGERATINCKSSQSLLNTNNQKNYLAWYQQKPGQPPKLLIYFASTRESGVPDRFSGSGSGTDFTLTISSLQAEDVAVYFCQQHYNAPRTFGGGTKVEIKRTVAAPSVFIFPPSDEQLKSGTASVVCLLNNFYPREAKVQWKVDNALQSGNSQESVTEQDSKDSTYSLSSTLTLSKADYEKHKVYACEVTHQGLSSPVTKSFNRGEC
notes: also called CLDN6-1 X 4-1BB NA; CLDN6-1×4-1BB NA
B2 gave a Kd (monomeric human 4-1BB) of 16.4 nM, an EC50 (human CLDN6 on cells [1]) of 7.11 nM and an EC50 [2] of 0.129 nM. For the same binder, the Kd [3] was 1.61 nM, the EC50 (human CLDN6 on cells [4]) was 2.84 nM and the EC50 (4-1BB on cells) was 0.406 nM. The EC50 (human CLDN6 on cells [5]) was 1.03 nM.

Source: US20260078196A1 (TJ BIOPHARMA SHANGHAI, published 2026)
